Results from PubChem BioAssay (NCATS).
The inconclusive results got no clear call from the source; some entries with a clear call stand among them for comparison. For some assays here: Potencies of inconclusive entries are doubtful fits and often do not repeat. The source made the active and inactive calls. Unless noted, calls follow the shape of the dose curve; as a rule, active = well fitted curve in the direction sought with a large enough effect; inconclusive = small, poorly fitted or top-dose-only effect, or another doubt; inactive = no such curve, though single readings can be large; an effect the other way counts as inactive or inconclusive.

Legend:
[1] = Cell Viability - NIH 3T3 (AID 541); settings: NIH 3T3 cell viability, qHTS; activity change, negative = cytotoxicity: at 92.2 µM (top of the series);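 also: plate controls were DMSO alone for no effect and tamoxifen positive control for full effect; nearly all actives have a fitted effect of over 25% in size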
How it was run: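 Mouse NIH 3T3 fibroblasts, 1000 cells/well, rested 5 hr at 37 °C, then exposed to compound for 40 hr at 37 °C in complete medium. Viability read as intracellular ATP by CellTiter-Glo luminescence; AC50 from Hill-equation fits of concentration-response data.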

[2] = Cell Viability - LYMP2-007 (AID 979);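 also: cells exposed to compound for 24 h before reading; 0% = DMSO only and the negative end = 92 µM tetraoctylammonium bromide; nearly all actives have a fitted effect of over 60% in size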
How it was run: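 Human lymphoblastoid LYMP2-007 cells (2500/well) preincubated 5 h at 37 C, then treated 24 h at 37 C in complete medium. Viability by CellTiter-Glo ATP luminescence after 30 min at room temperature; AC50 from Hill fits.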

[3] = qHTS assay for small molecule agonists of the antioxidant response element (ARE) signaling pathway (AID 651741; active = well fitted activation curve with a large enough effect in the signal ratio; inconclusive = small, poorly fitted or top-dose-only effect, or effect the other way, or a change in a side signal; the % refers to the signal ratio; also: % of control where 0% means no effect); settings: HepG2 ARE-bla reporter, beta-lactamase FRET ratio, 16 h; at 96 µM (top of the series)
How it was run: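 Compounds in DMSO are pinned onto HepG2 ARE-bla cells (2,000/well) that were preincubated 5 h; plates stay 16 h at 37 C, then beta-lactamase activity is detected with LiveBLAzer B/G substrate by fluorescence.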

[4] = target: Tumor necrosis factor (Homo sapiens) (UniProt P01375); assay: qHTS assay to identify small molecules that stimulate Tumor Necrosis Factor-alpha (TNF-alpha) secretion (AID 651757; active = well fitted curve in the direction sought with a large enough effect in the signal ratio; inconclusive = small, poorly fitted or top-dose-only effect, or a change in a side signal; inactive = no such curve, though single readings can be large or run the other way; the % refers to the signal ratio; also: 0% is about no effect); settings: Human cells, HTRF 665/615 ratio; activation (TNF-alpha secretion): at 92.2 µM (top of the series)
UniProt P01375, sequence (P01375 whole entry, looked up): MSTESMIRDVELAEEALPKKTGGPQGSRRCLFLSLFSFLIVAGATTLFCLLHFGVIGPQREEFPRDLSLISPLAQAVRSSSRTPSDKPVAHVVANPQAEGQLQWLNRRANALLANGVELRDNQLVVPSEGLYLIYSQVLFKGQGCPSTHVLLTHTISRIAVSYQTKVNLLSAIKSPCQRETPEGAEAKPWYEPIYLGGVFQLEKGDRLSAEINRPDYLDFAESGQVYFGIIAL
How it was run: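 THP-1 cells (3000/well) exposed to compounds 17 hrs at 37 C. Secreted TNF-alpha detected by HTRF with cryptate- and XL665-labeled anti-TNF-alpha antibodies after 3 hr at room temperature.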

[5] = Cellular Toxicity (caspase-3) SHSY5Y (AID 657);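 also: potency is read from the fitted curve at half-maximal effect; cells exposed to compound for 16 hours at 37 °C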
How it was run: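 Cells plated and incubated 5 h at 37 °C, dosed over a concentration range, incubated 16 h, then given Caspase-Glo 3/7 reagent for 1 h at room temperature before luminescence reading. Staurosporine (10 uM) defined full stimulation.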

[6] = Cell Viability - LYMP2-017 (AID 972); also: nearly all actives have a fitted effect of over 55% in size; also: potency is read from the fitted curve at half-maximal effect; as to activity change, negative = cytotoxicity: % is scaled to controls: 0 for no effect and ±100 for the full control effect
How it was run: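 LYMP2-017 human lymphoblastoid cells (2500/well) settled 5 hr at 37 C, then exposed to compound 24 hr at 37 C in complete medium. Viability taken as intracellular ATP by CellTiter-Glo luminescence after 30 min at RT; AC50 from Hill fits.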

[7] = Cell Viability - LYMP2-012 (AID 982);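 also: cellular ATP by luciferase luminescence where a drop means cytotoxicity; cells exposed to compound for one day before reading; 0% = DMSO only and full loss = 92 µM tetraoctylammonium bromide; nearly all actives have a fitted effect of over 55% in size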
[8] = Cell Viability - HUV-EC-C (AID 542); also: % is scaled to controls: 0 for no effect and ±100 for the full control effect; nearly all actives have a fitted effect of over 35% in size
How it was run: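 HUV-EC-C human vascular endothelial cells, 1000/well, exposed to compound for 40 hr at 37 °C in complete medium. Intracellular ATP was read by CellTiter-Glo luminescence. AC50 came from Hill-equation fits of concentration-response data.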

[9] = Cell Viability - H-4-II-E (AID 543); also: % is scaled to controls: 0 for no effect and ±100 for the full control effect; nearly all actives have a fitted effect of over 35% in size
How it was run: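 Rat hepatoma H-4-II-E cells, 1500 per well, treated 40 h at 37 °C in complete medium. Cellular ATP read by CellTiter-Glo luminescence; AC50 from Hill fits of concentration-response.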

[10] = Cell Viability - LYMP2-021 (AID 974);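 also: compound exposure lasts 24 hours at 37 °C; % is scaled to controls: 0 for no effect and ±100 for the full control effect; nearly all actives have a fitted effect of over 55% in size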
How it was run: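 Human lymphoblastoid LYMP2-021 cells, 2500/well in complete medium, treated 24 hours at 37 C. Intracellular ATP by CellTiter-Glo luminescence (30 min, RT); AC50 from Hill fits of concentration-response.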

[11] = Cellular Toxicity (caspase-3) Mesangial (AID 660); settings: mesangial cells; Potency: caspase-3 activation; caspase-3 activation: at 91.7 µM (top of the series), normalized: DMSO 0%, 100 µM tamoxifen 100%;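 also: combined caspase 3 and 7 activity read by Caspase-Glo luminescence; cells exposed to compound for 16 h before the caspase read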
How it was run: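 Human renal glomerular mesangial cells, 1000/well, 5 h at 37 C before 16 h compound treatment. Caspase-Glo 3/7 luminescence after 20 min; normalized to DMSO and 100 uM tamoxifen, AC50 from Hill fit.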

[12] = Cellular Toxicity (caspase-3) NIH 3T3 (AID 666);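 also: potency is read from the fitted curve at half-maximal effect; caspase signal read after 16 h compound exposure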
How it was run: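 Mouse NIH 3T3 fibroblasts (1000/well) treated 16 h at 37 C; caspase-3/7 activity measured by Caspase-Glo 3/7 luminescence after 20 min. Normalized to DMSO and 100 uM tamoxifen; AC50 from Hill fits.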

[13] = Cell Viability - LYMP2-008 (AID 980); also: nearly all actives have a fitted effect of over 60% in size; also: potency is read from the fitted curve at half-maximal effect; as to activity change, negative = cytotoxicity: % is scaled to controls: 0 for no effect and ±100 for the full control effect
How it was run: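 LYMP2-008 lymphoblastoid cells (2500/well) plated 5 h, then treated 24 h at 37 C in complete medium. Viability read as intracellular ATP by CellTiter-Glo luminescence after 30 min at room temperature; AC50 from Hill fits.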

[14] = target: Cytochrome P450 3A4 (Homo sapiens) (UniProt P08684); assay: qHTS Assay for Activators of Cytochrome P450 3A4 (AID 885); settings: recombinant CYP3A4, Luciferin-PPXE luminescence, 60 min; activity change, positive = activation: at 57.1 µM (top of the series); also: nearly all actives have a fitted effect of over 65% in size
UniProt P08684, sequence (P08684 whole entry, looked up): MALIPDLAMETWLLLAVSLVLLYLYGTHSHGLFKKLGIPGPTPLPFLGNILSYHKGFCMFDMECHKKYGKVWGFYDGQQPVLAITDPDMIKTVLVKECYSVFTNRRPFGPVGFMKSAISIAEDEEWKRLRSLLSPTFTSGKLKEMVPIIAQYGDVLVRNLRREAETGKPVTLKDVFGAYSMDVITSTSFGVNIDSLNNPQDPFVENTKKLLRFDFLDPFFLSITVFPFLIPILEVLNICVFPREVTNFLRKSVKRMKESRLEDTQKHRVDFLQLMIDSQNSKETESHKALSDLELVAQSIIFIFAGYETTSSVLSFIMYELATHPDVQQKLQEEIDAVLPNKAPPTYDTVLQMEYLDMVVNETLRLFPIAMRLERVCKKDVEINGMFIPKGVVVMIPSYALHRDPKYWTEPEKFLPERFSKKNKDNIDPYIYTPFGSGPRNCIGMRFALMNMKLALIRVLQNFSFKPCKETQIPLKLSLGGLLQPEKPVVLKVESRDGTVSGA
How it was run: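 Signal was normalized against complete inhibition by 57 uM ketoconazole. The reaction used 20nM CYP3A4 with 25uM Luciferin-PPXE, 10-min compound preincubation and a 60-min NADPH-supported step at RT.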

[15] = target: Cytochrome P450 2D6 (Homo sapiens) (UniProt P10635); assay: qHTS Assay for Inhibitors and Substrates of Cytochrome P450 2D6 (AID 891);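 also: luciferin methyl ether substrate demethylated by CYP2D6 with NADPH regeneration; potency is read from the fitted curve at half-maximal effect; nearly all actives have a fitted effect of over 60% in size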
UniProt P10635, sequence (P10635 whole entry, looked up): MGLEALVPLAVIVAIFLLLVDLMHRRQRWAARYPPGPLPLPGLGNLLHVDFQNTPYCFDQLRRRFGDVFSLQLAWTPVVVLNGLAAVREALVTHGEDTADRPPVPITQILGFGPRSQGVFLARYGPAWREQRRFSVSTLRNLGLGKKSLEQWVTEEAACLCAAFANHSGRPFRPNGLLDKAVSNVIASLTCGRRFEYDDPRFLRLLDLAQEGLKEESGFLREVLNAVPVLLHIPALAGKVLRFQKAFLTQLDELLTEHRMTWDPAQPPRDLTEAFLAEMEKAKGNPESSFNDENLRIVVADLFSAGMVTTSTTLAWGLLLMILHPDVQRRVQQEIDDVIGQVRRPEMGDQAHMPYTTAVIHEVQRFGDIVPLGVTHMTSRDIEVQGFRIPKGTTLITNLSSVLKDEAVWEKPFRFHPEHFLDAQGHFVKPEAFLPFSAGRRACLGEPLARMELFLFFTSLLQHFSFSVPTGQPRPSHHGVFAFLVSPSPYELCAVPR
How it was run: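 Human CYP2D6 (5 nM) with 30 uM Luciferin-ME EGE (at Km) in 100 mM KPO4, compound preincubated 10 min, then NADPH regeneration system for 60 min at room temperature. Luciferin read by luminescence; normalized to 1.43 uM quinidine.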

[16] = qHTS Assay for Identification of Small Molecule Antagonists for NFkB Signaling Pathway (AID 895; active = well fitted inhibition curve with a large enough effect in the signal ratio, with a control signal flat, not every such curve was filed as active; inconclusive = small, poorly fitted or top-dose-only effect, or effect the other way, or a change in a side signal; the % refers to the signal ratio; also: potency is read from the fitted curve at half-maximal effect); settings: NFkB beta-lactamase reporter cells, FRET ratio 460/530; activity change, negative = inhibition: at 38.3 µM (top of the series) unless noted
How it was run: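 NFkB-bla ME-180 cervical carcinoma cells with beta-lactamase reporter under NFkB response element; compounds added, then TNF alpha at 10 pM final (EC50), 5 h at 37 C. LiveBLAzer substrate 2 h, room temperature; emission 460/530 nm at 405 nm excitation.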

[17] = qHTS Assay for Identification of Small Molecule Antagonists for Thrombopoietin (TPO) Signaling Pathway (AID 918); settings: TPO-dependent cell signaling reporter, antagonist mode; activity change, negative = inhibition: at 38.5 µM (top of the series); also: nearly all actives have a fitted effect of over 60% in size
How it was run: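 Murine Ba/F3 cells expressing human TPO receptor and a Glycoprotein IIb promoter-luciferase reporter, IL-3-starved overnight, treated with compound plus TPO at EC50 (26 pM final). After 24 h at 37 C, luminescence read to detect inhibitors.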

[18] = target: Muscarinic acetylcholine receptor M1 (Rattus norvegicus) (UniProt P08482); assay: qHTS Assay for Antagonists of Acetylcholine Muscarinic M1 Receptor: Kinetic Measurement of Intracellular Calcium Response (AID 943); also: potency is read from the fitted curve at half-maximal effect; nearly all actives have a fitted effect of over 75% in size
UniProt P08482, sequence (P08482 whole entry, looked up): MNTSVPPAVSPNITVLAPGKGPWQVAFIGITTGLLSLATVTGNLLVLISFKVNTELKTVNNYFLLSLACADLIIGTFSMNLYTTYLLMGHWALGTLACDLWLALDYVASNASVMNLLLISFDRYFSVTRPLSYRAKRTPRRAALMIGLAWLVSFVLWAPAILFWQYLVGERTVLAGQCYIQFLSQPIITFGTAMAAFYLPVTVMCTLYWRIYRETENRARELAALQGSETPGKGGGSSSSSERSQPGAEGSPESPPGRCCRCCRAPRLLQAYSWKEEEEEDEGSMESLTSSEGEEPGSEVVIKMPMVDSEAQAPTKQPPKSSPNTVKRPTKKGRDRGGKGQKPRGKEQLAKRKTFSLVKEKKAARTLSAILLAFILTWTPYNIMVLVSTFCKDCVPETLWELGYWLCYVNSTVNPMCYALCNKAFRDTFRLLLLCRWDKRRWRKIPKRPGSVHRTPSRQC
How it was run: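 CHO cells expressing rat M1 receptor, Fluo-4 loaded, preincubated 10 min with compound, then stimulated with EC80 carbachol (100 nM final). Kinetic calcium fluorescence over 4 min; response taken as peak over basal signal.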

[19] = Cell Viability - LYMP1-002 - Assay at 16 hr (AID 948); settings: LYMP1-002 lymphoblastoid cell viability; also: potency is read from the fitted curve at half-maximal effect
How it was run: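 Acute cytotoxicity is scored as a concentration-dependent fall in intracellular ATP in a human lymphoblastoid line (LYMP1-002) after 16 hr compound exposure at 37 C, measured by luciferase luminescence.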

[20] = MultiTox-Fluor Cytotoxicity Assay - LYMP1-002 - Live Cells (AID 955);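 also: potency is read from the fitted curve at half-maximal effect; cells exposed to compound for 16 hours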
How it was run: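 Human lymphoblastoid LYMP1-002 cells, 2500/well, treated 16 h at 37 C in complete medium. Live-cell protease activity via GF-AFC fluorescence (Ex/Em 405/510) after 60 min reagent incubation; AC50 from Hill fits.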

[21] = MultiTox-Fluor Cytotoxicity Assay - LYMP1-003 - Live Cells (AID 962); settings: LYMP1-003 lymphoblastoid cells, MultiTox-Fluor live-cell protease fluorescence;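 also: potency is read from the fitted curve at half-maximal effect; cells exposed to compound for 16 hours at 37 °C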
How it was run: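 LYMP1-003 lymphoblastoid cells, 2500/well in complete medium, treated 16 h at 37 C; live-cell protease cleavage of GF-AFC read by fluorescence (Ex/Em 405/510) after 60 min reagent; AC50 from Hill fits of concentration-response.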

[22] = Cell Viability - LYMP2-010 (AID 981); also: potency is read from the fitted curve at half-maximal effect; nearly all actives have a fitted effect of over 55% in size
How it was run: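 Human lymphoblastoid LYMP2-010 cells (2500/well) treated 24 h at 37 C in complete medium; viability read as intracellular ATP by CellTiter-Glo luminescence. AC50 from Hill fits of concentration-response data; tetraoctylammonium bromide positive control.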

[23] = Cell Viability - LYMP2-018 (AID 985); settings: LYMP2-018 lymphoblastoid cells, viability (qHTS); activity change, negative = cytotoxicity: at 92.2 µM (top of the series);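 also: potency is read from the fitted curve at half-maximal effect; compound exposure lasted 24 hr at 37 °C; nearly all actives have a fitted effect of over 50% in size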
How it was run: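 Human lymphoblastoid LYMP2-018 cells, 2500/well, settled 5 hr at 37 C then exposed to compound 24 hr at 37 C; intracellular ATP measured by CellTiter-Glo luminescence. AC50 from Hill-equation concentration-response fits.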

[24] = Cell Viability - LYMP1-002 - Assay at 40 hr (AID 994)
How it was run: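 LYMP1-002 human lymphoblastoid cells (2500/well, complete medium) were treated with compounds for 40 hr at 37 C. Intracellular ATP was measured by CellTiter-Glo luminescence, and AC50 values came from Hill-equation fits of concentration-response data; tetraoctylammonium bromide was the positive control.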
Tags tell the direction and shape of the fitted curve or compound fluorescence and quenching.

For FC(F)(F)c1ccc(Cl)cc1, the activity change, negative = cytotoxicity [1] was inactive: -7.34%, the Potency [2] was “inactive” and the activation [3] was inactive: 4.28%. The Potency [4] was “inactive”.

With O=S(=O)(Cl)c1ccccc1 the activity change, negative = cytotoxicity [1] was active: -155%, the Potency [5] was inconclusive: 63.1 µM [rising, single point] and the Potency [6] was “inactive”. For the same compound, the Potency [7] was “inactive”.

For CCN(CC)CCO, the Potency [8] was “inactive”.

For COC(C)(C)C, the Potency [9] was “inactive”.

For CN(C)C(=O)Nc1cccc(C(F)(F)F)c1, the Potency [9] was “inactive” and the Potency [10] was “inactive”.

In the case of Brc1ccccc1, the Potency [11] was “inactive”.

For O=[N+]([O-])c1cc(Cl)c(Cl)c(Cl)c1, the Potency [12] was active: 25.1 µM and the Potency [13] was “inactive”.

In the case of S=C=Nc1cccc2ccccc12, the Potency [14] was “inactive”.

In the case of C[As+](C)(c1ccc(Br)c([N+](=O)[O-])c1)c1ccc(Br)c([N+](=O)[O-])c1.O=[N+]([O-])O, the Potency [15] was inconclusive: 1.58 µM [inhibitor, partial curve].

In the case of COC(=O)[C@@H]1c2cc3c(c(O)c2[C@@H](O)C[C@]1(C)O)C(=O)c1c(O)cc2c(c1C3=O)O[C@H]1O[C@@]2(C)[C@@H](O)[C@H](N(C)C)[C@H]1O, the Potency [15] was inconclusive: 5.01 µM [inhibitor, partial curve].

In the case of C[C@H](N)c1cccc(Cl)c1Cl, the Potency [16] was inconclusive: 12.6 µM [inhibitor, partial curve, poor fit] [stimulated with 10 pM TNF alpha], the activity change, negative = inhibition [17] was inconclusive: -22.1% [phenotype inactive] and the Potency [18] was inconclusive: 0.0089 µM [inhibitor, full curve, poor fit].

For c1cc(OCC2CO2)cc(OCC2CO2)c1 (centres undefined), the Potency [19] was inconclusive: 31.6 µM [cytotoxic, full curve], the Potency [20] was active: 31.6 µM and the Potency [21] was inconclusive: 79.4 µM [cytotoxic, partial curve, poor fit]. For the same compound, the Potency [6] was active: 39.8 µM, the Potency [13] was active: 39.8 µM and the Potency [22] was active: 31.6 µM. For the same compound, the Potency [23] was active: 31.6 µM and the Potency [24] was inconclusive: 3.98 µM [cytotoxic, partial curve].
